In article PMC4336329 (PLoS ONE, 2015):
About 2,200 (0.71%) of roughly 310,000 compounds showed an effect of 50% or more. Effects have a minus sign here. The list shows a part of the results.

Biological target: human ether-à-go-go-related gene (hERG) potassium channel (human, UniProt Q12809)
Assay: primary screen, population patch clamp on CHO cells stably expressing hERG

human ether-à-go-go-related gene (hERG) potassium channel, sequence (Q12809 whole entry, looked up): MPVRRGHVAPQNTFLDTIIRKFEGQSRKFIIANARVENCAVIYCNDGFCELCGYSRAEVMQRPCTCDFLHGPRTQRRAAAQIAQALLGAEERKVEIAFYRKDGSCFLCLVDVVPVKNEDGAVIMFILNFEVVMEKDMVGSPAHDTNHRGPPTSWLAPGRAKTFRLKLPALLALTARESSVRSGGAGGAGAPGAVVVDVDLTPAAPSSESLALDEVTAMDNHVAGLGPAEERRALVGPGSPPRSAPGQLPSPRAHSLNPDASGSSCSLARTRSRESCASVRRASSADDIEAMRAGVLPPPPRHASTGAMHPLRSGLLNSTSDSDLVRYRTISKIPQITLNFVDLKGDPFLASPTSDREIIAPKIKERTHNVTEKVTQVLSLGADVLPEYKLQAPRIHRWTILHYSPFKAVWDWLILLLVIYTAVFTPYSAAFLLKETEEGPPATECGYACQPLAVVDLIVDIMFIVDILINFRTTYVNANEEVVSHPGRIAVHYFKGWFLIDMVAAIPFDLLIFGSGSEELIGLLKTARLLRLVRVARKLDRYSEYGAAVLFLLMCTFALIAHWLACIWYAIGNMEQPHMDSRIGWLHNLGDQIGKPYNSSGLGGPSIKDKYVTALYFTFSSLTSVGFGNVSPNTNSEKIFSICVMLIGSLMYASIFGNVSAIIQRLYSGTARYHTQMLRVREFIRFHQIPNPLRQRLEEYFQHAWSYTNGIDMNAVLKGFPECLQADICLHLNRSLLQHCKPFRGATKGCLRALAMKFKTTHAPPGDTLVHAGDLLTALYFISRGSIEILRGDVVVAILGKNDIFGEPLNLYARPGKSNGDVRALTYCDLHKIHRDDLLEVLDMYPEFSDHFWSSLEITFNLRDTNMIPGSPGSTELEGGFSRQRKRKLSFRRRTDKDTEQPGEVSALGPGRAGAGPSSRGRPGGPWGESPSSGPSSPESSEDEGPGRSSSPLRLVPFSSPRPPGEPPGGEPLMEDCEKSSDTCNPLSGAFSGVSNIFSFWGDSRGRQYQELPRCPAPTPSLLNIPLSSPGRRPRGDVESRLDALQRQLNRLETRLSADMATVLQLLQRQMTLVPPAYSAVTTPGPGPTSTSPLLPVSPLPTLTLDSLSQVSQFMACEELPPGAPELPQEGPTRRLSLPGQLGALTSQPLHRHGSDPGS

Structure (SMILES)	hERG current change (%, negative = inhibition) at 1uM
CC(=O)O.O=C(NCC1CCCCN1)c1cc(OCC(F)(F)F)ccc1OCC(F)(F)F (centres unmarked)	-29.7%
CC1(C)N=C(c2cccs2)C(C)(C)N1O	11.5%
CCOC(=O)C1Nc2ccccc2C2c3ccccc3CC12 (centres unmarked)	18.1%
COc1ccc(CN2CCN(C(=O)C3CC(=O)N(C4CCCCCC4)C3)CC2)c(OC)c1OC (centres unmarked)	14.8%
OCC1CCCN(C(=S)Nc2ccc(Oc3ccccc3)cc2)C1 (centres unmarked)	12.8%
CCC(C)[C@H](NC(=O)N1CCn2c1nc1ccccc12)C(=O)NCC1CCCO1 (some centres unmarked)	5.23%
CCC(C)c1ccccc1N1CC(C(=O)NCCC2=CCCCC2)CC1=O (centres unmarked)	7.27%
COC(=O)C(C)NC(=O)C1CCCN1S(=O)(=O)c1cc(C)c(Cl)cc1C (centres unmarked)	15.5%
COC(=O)c1ccccc1NC(=S)NC(=O)c1ccc(C)cc1	9.88%
Cc1ccc(NC(=O)CN(C)S(=O)(=O)c2ccc3c(c2)c(=O)n(C)c(=O)n3C)cc1	7.08%
CC(=O)c1cccc(NC(=O)CCNC(=O)c2cccc(C)c2)c1	10.2%
Cc1ccn2c(=O)nc(SCC(=O)N3CCCCC3)nc2c1	-1.39%
O=C(CCN1C(=O)/C(=C/C=C/c2ccccc2)SC1=S)Nc1nc2ccccc2s1	16.3%
CN(C)CCCN(C(=O)c1ccc(S(=O)(=O)N2CCCC2)cc1)c1nc2ccc(Br)cc2s1.Cl	11.7%
O=C(CCCCC(=O)NNC(=O)COc1ccccc1)NNC(=O)COc1ccccc1	4.18%
O=C(C1CCCN(c2ncnc3c2nc2n3CCCCC2)C1)N1CCN(c2ccc(Cl)cc2)CC1 (centres unmarked)	7.33%
COC(CNC(=O)c1ccc(CS(=O)(=O)c2ccc(C)cc2)o1)OC	4.29%
CCOC(=O)COc1cc(N2C(=O)CSCC2=O)c(Cl)cc1Cl	5.92%
CCOc1ccc(-n2c(C)nc(O)c2N=Nc2ccccc2)cc1	16.4%
c1cn2c(Nc3ccc4c(c3)OCCO4)c(-c3ccc(N4CCOCC4)cc3)nc2cn1	-4.08%
Cc1cc(C)n2nc(SCC(=O)c3c(N)n(CC(C)C)c(=O)n(C)c3=O)nc2n1	5.54%
Cc1ccc(CC(=O)NCc2ccc3c(c2)OCO3)cc1	5.65%

Structure (SMILES)	hERG current change (%, negative = inhibition) at 1uM
CC(C)N1C/C(=C/c2ccsc2)C(=O)/C(=C/c2ccsc2)C1	-11.3%
O=[N+]([O-])c1ccccc1CN1CCN(Cc2ccccn2)CC1	15.4%
CC(CCc1ccccc1)NC(=O)CSc1nccc(=O)[nH]1 (centres unmarked)	7.61%
COC(=O)CC(NC(=O)Nc1ccc(C)cc1)c1cccc([N+](=O)[O-])c1 (centres unmarked)	14.1%
CN1CCC(=O)N(CCOc2ccccc2)CC1	16.1%
Cc1ccc(C)c(N2C(=O)c3ccc(C(=O)OCC(=O)c4c(N)n(C)c(=O)n(C)c4=O)cc3C2=O)c1	10.8%
CCC1=NN=C(c2ccc(F)cc2)C(c2c[nH]c3ccccc23)N1O (centres unmarked)	4.78%
Cn1nc(C(=O)OCC(=O)Nc2ccc(S(N)(=O)=O)cc2)c2ccccc2c1=O	4.73%
CCOCCCNC(=O)CN1C(=O)CSc2cc(S(=O)(=O)N3CCCCCC3)ccc21	-1.51%
Cc1ccc(OCC(=O)N2CCCCCCC2)cc1C	4.51%
S=c1[nH]nc(COc2ccccc2)n1/N=C/c1c(Cl)cccc1Cl	14%
O=C(CCOc1ccccc1)Nc1ccc(Br)cc1	17.2%
CCOC(=O)c1c(C)[nH]c(C)c1C(=O)CSc1nnc(-c2ccncc2)n1Cc1ccccc1	-4.01%
O=C(OCC1O[C@@H](OC(=O)c2cc(O)c(O)c(O)c2)[C@@H](OC(=O)c2cc(O)c(O)c(O)c2)[C@@H](OC(=O)c2cc(O)c(O)c(O)c2)[C@@H]1OC(=O)c1cc(O)c(O)c(O)c1)c1cc(O)c(O)c(O)c1 (some centres unmarked)	21%
O=C(Nc1ccc(Cl)cc1C(=O)N1CCOCC1)c1cccc([N+](=O)[O-])c1	11.6%
COc1cccc(NC(=O)CSc2nnc(Cn3nnc4ccccc43)n2C)c1	-13.2%
CCOC(=O)CSc1nc2c(sc(=S)n2CCc2ccccc2)c(=O)n1Cc1ccco1	14%
COc1ccccc1CC(NC(C)=O)C(=O)NC1CCN(C(=O)Nc2ccc(F)cc2)CC1 (centres unmarked)	6.65%
O=C(C[n+]1cccc(O)c1)NCc1ccc(Cl)cc1.[Cl-]	18.6%
O=Cc1ccccc1-n1cccn1	11.2%
FC(F)(F)c1cccc(N2CCC(N=CN3CCCCCC3)=N2)c1	12.5%
CCCCn1c(SCC(=O)Nc2cc(C)[nH]n2)nc2ccsc2c1=O	4.58%

Structure (SMILES)	hERG current change (%, negative = inhibition) at 1uM
Cc1ccc(CSCCNC(=O)CSCc2ccc([N+](=O)[O-])cc2)cc1	-18.1%
S=c1[nH]nc(-c2ccccc2)n1/N=C/c1ccc(-c2ccccc2Cl)o1	14.5%
CCN1C(=O)c2cccc3c(NC(=O)c4ccc(S(=O)(=O)N5CCOCC5)cc4)ccc1c23	13.1%
Cc1ccc(C)c(N2CCN(S(=O)(=O)c3ccc4c(c3)C(C)(C)C(=O)N4C)CC2)c1	3.29%
COc1ccc(NC(=O)N(Cc2cc3cc(OC)ccc3[nH]c2=O)CC2CCCO2)cc1 (centres unmarked)	3.41%
COC(=O)c1nc(NC(=O)c2cc(OC)c(OC)c(OC)c2)n[nH]1	10.8%
Cc1cc([N+](=O)[O-])ccc1NC(=O)C1CCCO1 (centres unmarked)	2.73%
O=C(NNS(=O)(=O)c1ccc(F)cc1)c1cc2ccccc2cc1O	12.9%
Cc1ccc(-c2ccc(C(=O)O)o2)cc1Cl	10.4%
O=C(NCC1CCCN(C(=O)c2cscn2)C1)c1ccccc1Cl (centres unmarked)	10.9%
COc1ccc(NC(=S)N(CCC(C)C)C2CCN(C(C)=O)CC2)cc1	15.9%
CC(OC(=O)c1cc(=O)[nH]c2ccccc12)C(=O)NC1CCCCC1C (centres unmarked)	3.96%
CN(C)C1=NCCN1CCc1ccc(F)cc1	12.6%
O=C(c1ccc(F)cc1)N1CCCCC(Sc2nnnn2-c2ccccc2)C1=O (centres unmarked)	-6.62%
COc1ccc(OCCCC(=O)Nc2cc(S(=O)(=O)N3CCCCC3)ccc2OC)cc1	2.18%
COc1ccc(NC(=O)CN(C)C2CCS(=O)(=O)C2)cc1 (centres unmarked)	25.6%
COc1ccc(N2CCN(C(=O)c3cc(C)oc3C)CC2)cc1	2.63%
CN(C)C1=NCCN1CCC1CCCCC1	11.4%
Cc1ccc(S(=O)(=O)C2(C(=O)N(C)C3CCCCC3)CC2)cc1	2.19%
O=C(CSc1nc2cc(Cl)ccc2s1)N1CCN(C(=O)c2ccco2)CC1	-34.3%
CCN1C(=O)N[C@H](c2ccc(Br)cc2)C(C(C)=O)=C1C	11.7%
COc1ccccc1Oc1cn[nH]c1-c1ccc(OCC(=O)NN)cc1O	13.1%

Structure (SMILES)	hERG current change (%, negative = inhibition) at 1uM
O=C(CSc1ncc(C(F)(F)F)cc1Cl)N1CCN(S(=O)(=O)c2ccc3ccccc3c2)CC1	-0.356%
c1ccc(CCn2nnnc2C(c2cccs2)N2CCOCC2)cc1 (centres unmarked)	0.906%
COc1cc(/C=N/NC(=O)c2ccncc2)cc2c1OCO2	16.9%
Cc1cc(OCCCC(=O)N2CCCCC2)cc(C)c1Cl	3.83%
COc1ccccc1NC(=O)C(C)Nc1ccc(C)c(Cl)c1 (centres unmarked)	7.58%
CCO[C@H]1OC(C(=O)NC2CC2)=C[C@@H](C2CCCCC2)[C@@H]1CCCO	7.91%
COC(=O)c1sccc1N/N=C(\C)c1ccc(F)c(Cl)c1	9.39%
COc1cc(CN2CCCC(C(=O)c3ccc(SC)cc3)C2)cc(Cl)c1O (centres unmarked)	-3.13%
O=C(COC(=O)/C=C/c1ccc(C(F)(F)F)cc1)NCCC1=CCCCC1	9.61%
O=C(CNCC1CCCO1)Nc1ccccc1N1CCOCC1.O=C(O)C(=O)O (centres unmarked)	20.1%
COCCn1c(N)c(N(Cc2ccccc2)C(=O)c2cc3ccccc3o2)c(=O)[nH]c1=O	9.08%
Cc1ccc(S(=O)(=O)N(C)C)cc1NC(=O)COC(=O)C1COc2ccccc2O1 (centres unmarked)	9.85%
O=C1c2ccccc2C(=O)C12OC2c1cccc2ccccc12 (centres unmarked)	-38.8%
O=C(Cn1nnc2ccccc2c1=O)NCCc1ccc(Cl)cc1Cl	-1.86%
Cc1cccc(NC2=NCCCS2)c1C	16.3%
CC(C)CN(C(=O)CCC(=O)OCc1ccc(Cl)cc1Cl)c1c(N)n(CC(C)C)c(=O)[nH]c1=O	16%
Cc1nonc1OCCNC(=O)C12CC3CC(CC(C3)C1)C2	-3.37%
CCn1c(SC(C)C(=O)N2CCOCC2)nc2sc(C)c(C)c2c1=O (centres unmarked)	12.3%
O=C(O)C1CCN(C(=O)CCc2ccccc2)CC1	9.64%
CC1CCN(C(=O)c2ccc3ccccc3c2)CC1	3.99%
